Drawing on the supplement of paper PMC4967469, this text covers AUC and IC50 for 65 cell lines.

The IC50 is the concentration at which inhibition is half-maximal.

Compound in the experiment: CCc1nc(-c2cccc(C)c2)c(-c2ccnc(NC(=O)c3ccccc3)c2)s1 [TAK-715]
Description: Viability of human cancer cell lines after 72 h of drug (GDSC screen). The conditions noted are these: top dose inferred. The protocol: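 Human cancer cell lines in 384-well plates, medium with 10% serum, drug for 72 h over a 256-fold dose range (nine 2-fold or five 4-fold steps up to the top dose). Adherent lines were fixed and stained with the nucleic acid dye Syto60, suspension lines read with resazurin; signal relative to control wells, capped at 0 and 100%. One two-parameter sigmoid per drug and line, fitted in a mixed model over all curves with the slope shared within a line.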

A lower IC50 marks a more sensitive line; where the fit passes the top or lowest dose, that dose stands as a limit. For AUC the same curve is integrated over the 256-fold range of doses and scaled to a fraction; the more sensitive the line, the further below 1. Where the top dose is marked as inferred, it was calculated from the reported fits. A value given as a limit tells only on which side of the number the result lay.

“MFM-223 (breast, adherent, top dose 20 µM)”: the AUC was 0.929 and the IC50 is > 20 µM.
Regarding “MG-63 (osteosarcoma, adherent, top dose 20 µM)”, the AUC worked out at 0.984 and the IC50 was > 20 µM.
In the same order, the values of “MHH-ES-1 (Ewing sarcoma, adherent, top dose 20 µM)” are 0.874 and 19 µM.
For the cell line “MHH-NB-11 (neuroblastoma, adherent, top dose 20 µM)”, the AUC was 0.907 and the IC50 was > 20 µM.
In the same order, the values of “MHH-PREB-1 (B-cell leukaemia, suspension, top dose 20 µM)” are 0.912 and > 20 µM.
For the cell line “MIA-PaCa-2 (pancreas, adherent, top dose 20 µM)”, the AUC worked out at 0.957 and the 50% inhibitory concentration (IC50) is > 20 µM.
Take “MKN1 (stomach, adherent, top dose 20 µM)”: the AUC came out at 0.896 and the IC50 is > 20 µM.
For the cell line “MKN28 (stomach, adherent, top dose 20 µM)”, the AUC turned out to be 0.943 and the half-maximal inhibitory concentration (IC50) was > 20 µM.
Taken in the same sequence, the figures for “MKN45 (stomach, adherent, top dose 20 µM)” were 0.925 and > 20 µM.
In the same order, the values of “ML-1 (thyroid, adherent, top dose 20 µM)” are 0.984 and > 20 µM.
As for “ML-2 (acute myeloid leukaemia, suspension, top dose 20 µM)”, the AUC came to 0.898 and the half-inhibitory concentration (IC50) was > 20 µM.
In the same order, the values of “MLMA (hairy cell leukaemia, semi-adherent, top dose 20 µM)” are 0.901 and > 20 µM.
On to “MMAC-SF (melanoma, adherent, top dose 20 µM)”, for which the AUC is 0.976 and the IC50 is > 20 µM.
In the same order, the values of “MN-60 (B-cell leukaemia, suspension, top dose 20 µM)” are 0.841 and 14.7 µM.
“MOG-G-CCM (glioma, adherent, top dose 20 µM)”: the AUC came out at 0.816 and the 50% inhibitory concentration (IC50) stood at 13.5 µM.
Take “MOG-G-UVW (glioma, adherent, top dose 20 µM)”: the AUC stood at 0.854 and the IC50 came out at 15.1 µM.
On to “MOLM-13 (acute myeloid leukaemia, suspension, top dose 20 µM)”, for which the AUC amounted to 0.812 and the IC50 is 9.86 µM.
On to “MOLP-8 (myeloma, suspension, top dose 20 µM)”, for which the AUC was found to be 0.672 and the half-inhibitory concentration (IC50) worked out at 3.69 µM.
Consider “MOLT-4 (lymphoblastic leukaemia, suspension, top dose 20 µM)”, for which the AUC was 0.847 and the 50% inhibitory concentration (IC50) was 10.8 µM.
Taken in the same sequence, the figures for “MOLT-13 (T-cell lymphoblastic leukaemia, suspension, top dose 20 µM)” were 0.869 and 14.8 µM.
In the same order, the values of “MONO-MAC-6 (acute myeloid leukaemia, suspension, top dose 20 µM)” are 0.891 and > 20 µM.
On to “MPP-89 (mesothelioma, adherent, top dose 20 µM)”, for which the AUC worked out at 0.977 and the IC50 was > 20 µM.
In the same order, the values of “MRK-nu-1 (breast, suspension, top dose 20 µM)” are 0.99 and > 20 µM.
In the same order, the values of “MS751 (cervix, adherent, top dose 20 µM)” are 0.956 and > 20 µM.
For the cell line “MS-1 (small cell lung carcinoma, suspension, top dose 20 µM)”, the AUC came out at 0.918 and the IC50 is > 20 µM.
In the same order, the values of “MSTO-211H (mesothelioma, adherent, top dose 20 µM)” are 0.976 and > 20 µM.
Taken in the same sequence, the figures for “MV-4-11 (leukaemia, suspension, top dose 20 µM)” were 0.882 and 14.7 µM.
“MY-M12 (leukaemia, suspension, top dose 20 µM)”: the AUC is 0.863 and the IC50 is > 20 µM.
With “MZ1-PC (pancreas, adherent, top dose 20 µM)”, the AUC is 0.923 and the IC50 is > 20 µM.
As to “MZ2-MEL (melanoma, adherent, top dose 20 µM)”, the AUC was 0.945 and the IC50 is > 20 µM.
Consider “MZ7-mel (melanoma, adherent, top dose 20 µM)”, for which the AUC is 0.954 and the IC50 is > 20 µM.
Taken in the same sequence, the figures for “Mewo (melanoma, adherent, top dose 20 µM)” were 0.978 and > 20 µM.
In the case of “Mo-T (hairy cell leukaemia, suspension, top dose 20 µM)”, the AUC was 0.87 and the half-maximal inhibitory concentration (IC50) stood at 19.4 µM.
In the same order, the values of “NALM-6 (B-cell leukaemia, suspension, top dose 20 µM)” are 0.883 and 15.5 µM.
In the case of “NAMALWA (Burkitt lymphoma, suspension, top dose 20 µM)”, the AUC was determined as 0.885 and the concentration for half-maximal inhibition (IC50) turned out to be 15.8 µM.
“NB5 (neuroblastoma, adherent, top dose 20 µM)”: the AUC amounted to 0.98 and the half-inhibitory concentration (IC50) was > 20 µM.
Regarding “NB6 (neuroblastoma, adherent, top dose 20 µM)”, the AUC amounted to 0.977 and the half-inhibitory concentration (IC50) is > 20 µM.
Taken in the same sequence, the figures for “NB7 (neuroblastoma, adherent, top dose 20 µM)” were 0.875 and > 20 µM.
Taken in the same sequence, the figures for “NB10 (neuroblastoma, adherent, top dose 20 µM)” were 0.931 and > 20 µM.
Taken in the same sequence, the figures for “NB12 (neuroblastoma, adherent, top dose 20 µM)” were 0.895 and > 20 µM.
As to “NB13 (neuroblastoma, adherent, top dose 20 µM)”, the AUC was found to be 0.965 and the 50% inhibitory concentration (IC50) is > 20 µM.
In the same order, the values of “NB14 (neuroblastoma, adherent, top dose 20 µM)” are 0.935 and > 20 µM.
Consider “NB17 (neuroblastoma, adherent, top dose 20 µM)”, for which the AUC worked out at 0.967 and the IC50 is > 20 µM.
In the same order, the values of “NB69 (neuroblastoma, adherent, top dose 20 µM)” are 0.977 and > 20 µM.
In the same order, the values of “NB(TU)1-10 (neuroblastoma, adherent, top dose 20 µM)” are 0.982 and > 20 µM.
As for “NB-4 (acute myeloid leukaemia, suspension, top dose 20 µM)”, the AUC was 0.94 and the IC50 was > 20 µM.
In the same order, the values of “NCC021 (kidney, adherent, top dose 20 µM)” are 0.985 and > 20 µM.
Take “NCI-H23 (lung adenocarcinoma, adherent, top dose 20 µM)”: the AUC came to 0.937 and the IC50 was > 20 µM.
In the same order, the values of “NCI-H28 (mesothelioma, adherent, top dose 20 µM)” are 0.967 and > 20 µM.
With “NCI-H64 (small cell lung carcinoma, suspension, top dose 20 µM)”, the AUC was 0.951 and the 50% inhibitory concentration (IC50) was > 20 µM.
In the same order, the values of “NCI-H69 (small cell lung carcinoma, suspension, top dose 20 µM)” are 0.951 and > 20 µM.
Regarding “NCI-H82 (small cell lung carcinoma, suspension, top dose 20 µM)”, the AUC was found to be 0.968 and the half-inhibitory concentration (IC50) was > 20 µM.
Turning to “NCI-H187 (small cell lung carcinoma, suspension, top dose 20 µM)”, the AUC was 0.986 and the IC50 was > 20 µM.
Taken in the same sequence, the figures for “NCI-H196 (small cell lung carcinoma, adherent, top dose 20 µM)” were 0.988 and > 20 µM.
Taken in the same sequence, the figures for “NCI-H209 (small cell lung carcinoma, suspension, top dose 20 µM)” were 0.986 and > 20 µM.
For “NCI-H211 (small cell lung carcinoma, adherent, top dose 20 µM)”, the AUC turned out to be 0.94 and the IC50 was > 20 µM.
Regarding “NCI-H226 (lung squamous cell carcinoma, adherent, top dose 20 µM)”, the AUC was determined as 0.921 and the concentration for half-maximal inhibition (IC50) was > 20 µM.
Taken in the same sequence, the figures for “NCI-H292 (lung adenocarcinoma, adherent, top dose 20 µM)” were 0.915 and > 20 µM.
Taken in the same sequence, the figures for “NCI-H322M (lung adenocarcinoma, suspension, top dose 20 µM)” were 0.967 and > 20 µM.
Taken in the same sequence, the figures for “NCI-H345 (small cell lung carcinoma, suspension, top dose 20 µM)” were 0.957 and > 20 µM.
With “NCI-H358 (lung adenocarcinoma, adherent, top dose 20 µM)”, the AUC amounted to 0.79 and the IC50 was determined as 10 µM.
Taken in the same sequence, the figures for “NCI-H441 (lung adenocarcinoma, adherent, top dose 20 µM)” were 0.931 and > 20 µM.
For “NCI-H446 (small cell lung carcinoma, semi-adherent, top dose 20 µM)”, the AUC amounted to 0.978 and the concentration for half-maximal inhibition (IC50) was > 20 µM.
Taken in the same sequence, the figures for “NCI-H460 (large cell lung carcinoma, adherent, top dose 20 µM)” were 0.969 and > 20 µM.
Taken in the same sequence, the figures for “NCI-H510A (small cell lung carcinoma, semi-adherent, top dose 20 µM)” were 0.989 and > 20 µM.
